# Measured values reported in PubChem BioAssay AID2675 (National Center for Advancing Translational Sciences (NCATS), 2010).
# The whole screen tested about 280,000 compounds, of which about 100 (0.036%) were called active. Inconclusive means that the source gave no clear call. Such entries were picked first, then a sample of the others. Calls follow the shape of the dose curve; as a rule, active = well fitted inhibition curve with a large enough effect in the signal ratio, with a control signal flat (not every such curve was filed as active); inconclusive = small, poorly fitted or top-dose-only effect, or effect the other way, or a change in a side signal; inactive = no such curve, though single readings can be large or run the other way; the % refers to the signal ratio. Potencies of inconclusive entries are doubtful fits and often do not repeat. A note “side channel” means that the fit belongs to a control or component signal, not to the main read-out.
# Molecular target: Muscleblind-like protein 1 (Homo sapiens) (UniProt Q9NR56)
# Assay: qHTS Assay for Inhibitors of MBNL1-poly(CUG) RNA binding
# Details: TR-FRET MBNL1-His/biotin-(CUG)12 binding, 665/545 ratio; series mostly up to 57.5 µM
# Procedure, shortened: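 MBNL1-His + Biotin-(CUG)12, cpd titration 92 nM–58 uM; Tb anti-His Ab 0.055 ng/ul, SA-XL665 5 nM (final); 60 min RT; ratiometric 665/545 nm, Ex 340 nm; normalized to buffer and full-complex controls.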
# Potency is read from the fitted curve at half-maximal effect; tags tell the direction and shape of the fitted curve or compound fluorescence and quenching.
# Chain of UniProt Q9NR56 (Q9NR56 whole entry, looked up): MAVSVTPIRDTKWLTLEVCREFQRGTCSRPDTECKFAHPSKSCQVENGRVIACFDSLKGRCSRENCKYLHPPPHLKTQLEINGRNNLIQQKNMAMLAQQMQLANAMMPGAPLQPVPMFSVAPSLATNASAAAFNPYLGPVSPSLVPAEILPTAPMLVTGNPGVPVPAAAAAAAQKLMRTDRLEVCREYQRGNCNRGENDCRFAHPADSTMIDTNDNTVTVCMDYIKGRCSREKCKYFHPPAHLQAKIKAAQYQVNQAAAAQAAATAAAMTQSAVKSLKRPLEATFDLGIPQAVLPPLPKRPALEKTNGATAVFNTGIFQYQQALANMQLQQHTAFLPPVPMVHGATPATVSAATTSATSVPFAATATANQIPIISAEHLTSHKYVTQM
row,Compound,Potency
1,CC(C)CCNC(=O)NC(=O)COC(=O)/C=C/c1cccc([N+](=O)[O-])c1,"inconclusive: 3.16 µM [quencher, side channel, full curve]"
2,Cc1cc(C)c2nc(-c3ccccn3)cc(C(=O)NCc3ccco3)c2c1,inactive
3,COc1ccc(/C=C2/C(=O)OCc3cc(OC)c(OC)cc32)cc1,inactive
4,COC(=O)CCCC1=CC2=CC(=O)C(C)(OC(=O)c3cccs3)C(=O)C2=CN1CCCOC(C)C (stereo not drawn),"inconclusive: 25.1 µM [quencher, side channel, single point]"
5,CCCCCCn1c(CN2CCN(Cc3ccccc3)CC2)nc2c1c(=O)n(C)c(=O)n2C,"inconclusive: 5.62 µM [quencher, side channel, single point]"
6,CCN1CCN(c2oc(/C=C/c3ccccc3)nc2C#N)CC1,"inconclusive: 11.2 µM [quencher, side channel, partial curve]"
7,CCN(CC)S(=O)(=O)c1ccc(/C=C/C(=O)OCC#N)cc1,"inconclusive: 28.2 µM [quencher, side channel, single point]"
8,CC(=O)c1cc(N2CCOCC2)ccc1[N+](=O)[O-],"inconclusive: 14.1 µM [quencher, partial curve]"
9,O=C(NNC(=O)c1ccncc1)Nc1ccc([N+](=O)[O-])cc1,"inconclusive: 25.1 µM [quencher, side channel, partial curve]"
10,NCCCC[C@H]1CNC(=S)N1CC1CCCCC1,inactive
11,COC(=O)c1cc(S(=O)(=O)N2CCN(c3cc(C)ccc3C)CC2)c[nH]1,inactive
12,COC(=O)C1=C(NC(=O)CCCCl)CCS1,"inconclusive: 0.0891 µM [fluorescent, side channel, full curve]"
13,Cc1ccc(N(CC(=O)Nc2cccc(C)c2)S(=O)(=O)c2cccc3nonc23)cc1,"inconclusive: 20 µM [quencher, side channel, partial curve]"
14,Cc1ccc(C(=O)NC2CCN(CCCC(=O)c3ccc(F)cc3)CC2)cc1,inactive
15,CCOC(=O)/C=c1\s/c(=C\c2ccc3c(c2)OCCO3)c(=O)n1CC(=O)NCC1CCCO1 (stereo not drawn),"inconclusive: 2.51 µM [quencher, side channel, full curve, poor fit]"
16,CCS(=O)(=O)N1CCN(c2cc3c(cc2[N+](=O)[O-])n(C)c(=O)n3C)CC1,"inconclusive: 0.158 µM [quencher, side channel, full curve, poor fit]"
17,Cc1nnn(-c2nonc2N)c1C(=O)N/N=C/c1ccccc1O,inactive
18,Cc1cccc(N2C(=O)CS/C2=N\NC(=O)c2ccc(Br)cc2)c1C,"inconclusive: 5.01 µM [quencher, side channel, single point]"
